The list shows a part of the results. At the low end of the ranking the order means little.
Target: SIX1 homeodomain (reference allele) (UniProt Q15475)
Assay: universal protein binding microarray
Conditions: Universal all-10-mer PBM (8x60K, AMADID 030236), 300 nM GST-tagged protein, Alexa Fluor 488 anti-GST; buffer, salt, pH and temperature not stated; high values mean tight binding; most listed sequences are background and not binding sites; double strand, one strand shown

Sequence	binding signal
GTTGATGA	-0.0362 E-score
AAATGTGT	-0.127 E-score
ACTCCACG	-0.151 E-score
ACGCCACG	-0.0993 E-score
GCGCCGCC	-0.0101 E-score
GTCGATAA	-0.19 E-score
GGTGCACA	-0.106 E-score
CAGCAGAC	-0.26 E-score
CGGCGAAC	0.129 E-score
CAGAACGC	-0.231 E-score
AAGTACCG	-0.151 E-score
GCCTGTAC	-0.257 E-score
CGCAACTC	-0.201 E-score
ACGGACAA	-0.0291 E-score
AGCGCCCG	-0.16 E-score
TCCCGAGA	0.0986 E-score
ATAGCATG	0.0394 E-score
AAGTAAAT	-0.0628 E-score
ATGATGGC	-0.126 E-score
ACTACGTG	-0.0731 E-score
CAAGCTAG	-0.0839 E-score
CGACCGAG	-0.117 E-score
GACTCGGA	0.0606 E-score
CGGCATGA	0.139 E-score
AGTCGACG	0.0544 E-score

Sequence	binding signal
GCTCCGCC	-0.109 E-score
ACGTTCTG	-0.178 E-score
ACGGGCTA	0.0249 E-score
CCGTTGTC	-0.159 E-score
ACTCGGGA	0.0672 E-score
AAGCGGTC	-0.148 E-score
AGACCCTG	0.0178 E-score
ACTCACGA	0.0685 E-score
CATGTAAC	-0.146 E-score
AATTCAAA	-0.191 E-score
CACTTGGC	-0.122 E-score
CGTCGTCA	-0.0824 E-score
CTTGACTC	-0.279 E-score
GCCTGTCA	-0.0937 E-score
AGCTACCC	0.00907 E-score
AAAACCCA	0.0053 E-score
CAACTAAC	-0.13 E-score
ACATTTCT	-0.101 E-score
GAATGATC	0.306 E-score
GACGCCAA	-0.165 E-score
ATAGGTCG	0.0987 E-score
GGTGTAGA	0.317 E-score
GGAGCATA	0.213 E-score
ACTGCTTC	-0.266 E-score
CCCAAAGG	-0.0824 E-score

Sequence	binding signal
ATTAGTTG	0.09 E-score
AGCACACG	-0.254 E-score
AGAGGGAG	-0.128 E-score
AGCCGTAC	-0.00524 E-score
CTAATCAC	0.106 E-score
TCCATCAA	0.168 E-score
ACCCTTTC	-0.0808 E-score
GTTTGCCA	-0.237 E-score
AACGTGTG	-0.23 E-score
CTCTTTGA	-0.199 E-score
AAATTTGC	-0.286 E-score
AGGCCGAC	-0.258 E-score
CTTGTGGA	-0.0761 E-score
AAGGGCGG	-0.185 E-score
AGACAACC	-0.0652 E-score
CGAAAAGC	-0.261 E-score
CATATAGA	0.183 E-score
AAGCTATT	-0.0788 E-score
CGCCGATC	0.258 E-score
CGGCGCGA	0.124 E-score
GAAGTGTC	0.083 E-score
ACGAATAG	-0.11 E-score
ATTGGATA	0.297 E-score
AGACAGAC	-0.0699 E-score
AGCCATTA	0.0688 E-score

Sequence	binding signal
ACAACGTC	-0.328 E-score
AGTAGATC	0.321 E-score
CCCATAAC	-0.0014 E-score
CGACGTCC	-0.212 E-score
GAATCGGC	-0.0808 E-score
CGCTTAGA	-0.0774 E-score
AAGGCCAA	-0.213 E-score
ATCAAAGC	0.214 E-score
CTGAGGAA	-0.177 E-score
ATTGCGTG	-0.00942 E-score
AACCACTA	-0.155 E-score
AGAGTCAA	-0.234 E-score
AAGGGTCA	-0.0563 E-score
AAGCCCTC	-0.182 E-score
GGCTGCCA	-0.28 E-score
GCACAGAA	-0.219 E-score
CTCCACGA	-0.133 E-score
AGATGGAT	0.328 E-score
GTGCCTTA	-0.24 E-score
GCAACACC	0.25 E-score
TGCTTACA	-0.0502 E-score
GGATTCCA	0.201 E-score
ATAAGTTA	-0.0906 E-score
AAAACTAT	0.0642 E-score
AGTGTTTC	-0.189 E-score

Sequence	binding signal
AAAGGCAC	-0.257 E-score
CTGTGGGC	-0.254 E-score
CAGGCGTA	-0.000125 E-score
CTGCATAC	0.0871 E-score
ACGGCAGC	-0.0537 E-score
AAGCGACA	-0.0712 E-score
AGGGCACC	-0.172 E-score
ATACTTCA	0.166 E-score
CCTAACCC	-0.0302 E-score
AGGTCCTC	-0.182 E-score
GAGGTGGA	0.0141 E-score
GACGGAAC	-0.139 E-score
CCGACGTA	-0.059 E-score
ATCTTCTC	0.132 E-score
AGCTCTTG	-0.0312 E-score
GTGGTCTA	-0.00752 E-score
GCATGTAA	-0.202 E-score
GATGGCAA	-0.109 E-score
CGCCGGGC	-0.0821 E-score
CATACCTA	0.174 E-score
ACGACGAG	-0.209 E-score
AAACCATG	0.0829 E-score
AAGTGAAA	-0.156 E-score
CCTGTCGC	-0.00328 E-score
GAACTCCA	-0.308 E-score

Sequence	binding signal
CACACGTA	0.108 E-score
GGAAGTCC	-0.23 E-score
CGCGTAGA	0.079 E-score
AGTCACTG	-0.282 E-score
ATGAGCCG	0.206 E-score
CACGAAGA	0.0108 E-score
TGTAACAA	-0.0896 E-score
ATCATCAT	0.291 E-score
ATTGACCA	-0.0208 E-score
ACGACTTA	-0.122 E-score
ACCTCTTG	0.101 E-score
GCCTCGAA	-0.219 E-score
TACAGTCA	0.0219 E-score
AGACTCCC	-0.147 E-score
ATTACCCG	0.135 E-score
TACAGCGA	0.0268 E-score
CAGTCTTC	-0.258 E-score
ATGGCGTC	-0.0404 E-score
GCAGTCAC	-0.143 E-score
CTACAAGC	-0.246 E-score
CAGACGGA	0.0786 E-score
CGGAAGCC	0.0281 E-score
CTGTCCCA	-0.037 E-score
ATGTTACG	-0.3 E-score
AGTTTTGC	-0.0945 E-score

Sequence	binding signal
ACGTTGAG	-0.0815 E-score
TATCCTCA	0.37 E-score
ACACAAGT	-0.00325 E-score
AAGCGAAA	-0.289 E-score
AAACCCAT	0.169 E-score
CGTCCAAC	-0.0628 E-score
ACCATGAT	0.269 E-score
GAAATTAA	-0.193 E-score
TAACTCGA	-0.00801 E-score
ATGCTACG	0.0501 E-score
ATGTACAA	-0.101 E-score
ACTGCCCG	-0.087 E-score
AGTCGCAA	-0.148 E-score
AAATAATG	-0.0999 E-score
ATTAGTAC	0.0377 E-score
CTCCTACC	-0.112 E-score
CCAAGACC	-0.11 E-score
TGATGGAA	-0.141 E-score
CGGCACGC	-0.176 E-score
CGACCTCA	-0.088 E-score
ACCTCCCT	-0.173 E-score
ACCTCCCA	0.00382 E-score

Source: article PMC10668032
